The source gives no read counts; variants with many changes may rest on few reads.
B1: LINE1-full (parent)
chain: UACGUAGGUGGUUUUCCCCUGAUAGUGCUAAGGGGGCCUGGAAGUUUGGACUGGGCAGAGCUCAACACAGCGUGGCAAAGUGGCUGUGGCUAGACUGCCUCUCUGGAUUCCUCGUCACUCAGCAGGGCAUCUCUGAGAGAAAUGCC

Variants of: B1
Assay: self-cleavage, relative activity (ratio to wild type); higher = more cleavage; in vitro, sequencing; the parent is a self-cleaving ribozyme

| Variant | self-cleavage |
| --- | --- |
| AGCGUAGGUGGUUUUCCCCUGAUAGUGCUAAGGGGGCCUGGAAGUUUGGACUGGGCAGAGCUCAACACAGCGUGGCAGAGUGGCUGUGGCUAGACUGCCUCUCUGGAUUCCUCGUCACUCAGCAGGGCAUCUCUGAGUGAAAUGCC [U1A A2G A78G A138U] | 0.96 |
| AACGUGGGUGGUUUUCCCCUGAUAGUGCUAAGGGGGCCUGGAAGUUUGGGCUGGGCAGAGCUCAACACAGCGUGGCAAAGUGGCUGUGGCUAGACUGCCCCUCUGGAUUCCUCGUCACUCAGCAGGGCAUCUCUGAGAGAAAUGCC [U1A A6G A50G U100C] | 0 |
| AACGUAGGUGGUUUUCCCCUGUUAGUGCUAAGGGGGCCUGGAAGUUUGGACUGGGCAGAGCUCAACACAGCGUGGCAAAGUGGCUGUGGCUAGACUGCCUCUCUGGAUUCUUCGUCACUCAGCAGGGCAUCUCUGAGAGAAAUGCC [U1A A22U C111U] | 1.45 |
| AACGUAGGUGGUUUUCCCCUGAUGGUGCUAAGGGGGCCUGGAAGUUUGGACAGGGCAGAGCUCAACACAGCUUGGCAAAGUGGUUGUGGCUAGACUGCCUCUCUGGAUUCCUCGUCACUCAGCAGGGCAUCUCUGAGAGAAAUGCC [U1A A24G U52A G72U C84U] | 0.62 |
| AACGUAGGUGGUUUUCCCCUGAUGGUGCUAAGGGGGCCUGGAAGUUUGGACUGGGCAGAGCUCAACACAGCGUGGCAAAGUGGCUGUGGCUAGACUGCCUCUCUGGAUUCCUCGUCACUCAGCAGGGCAUCUCUGAGAGAAACGCC [U1A A24G U143C] | 1.02 |
| AACGUAGGUGGUUUUCCCCUGAUAGUGCUGAGGGGGCCAGGAAGUUUGGACAGGGCAGAGCUCAACACAGCGUGGCAAUGUGGCUGUGGCUAGACUGCCUCUCUGGAUUCCUCGUCACUCAGCAGGGCAUCUCUGAGAGAAAUGCC [U1A A30G U39A U52A A79U] | 1.37 |
| AACGUAGGUGGUUUUCCCCUGAUAGUGCUACGGGGGCCUGGAAGUUUGGACUGGGCAGGGCUCAACACAGCGUGGCGAAGUGGCUGUGGCUAGACUGCCUCUCUGGAUUCCUCGUCACUCAGCAGGGCAUCUCUGAGAGAAAUGCC [U1A A31C A59G A77G] | 0.68 |
| AACGUAGGUGGUUUUCCCCUGAUAGUGCUAAGGGGGCCUGGAAGUUUGGGCUGGGCAGAGCUCAACACGGCGUGGCAAAGUGGCUGUGGCUAGACUGCCUCUCUGGAUUCCUCGUCACUCAGCAGGGCAUCUCUGAGAGAAACGCC [U1A A50G A69G U143C] | 0 |
| AACGUAGGUGGUUUUCCCCUGAUAGUGCUAAGGGGGCCUGGAAGUUUGGGCUGGGCAGAGCUCAACACAGCGUGGCAAAGUGGCUGUGGCUAGACUGCCUCUCUGGAUUCCUCGUCACUCAGCAGGGCUUCUCUGAGAGAAAUGCC [U1A A50G A129U] | 0.78 |
| AACGUAGGUGGUUUUCCCCUGAUAGUGCUAAGGGGGCCUGGAAGUUUGGACUGGGCGGAGCUCAACACAGCGUGGCAAAGUGGCAGUGGCUAGACUGCCUCUCUGGAUUCCUCGUCACUCAGCAGGGCAUCUCUGAGAGAAAUGCC [U1A A57G U85A] | 0.14 |
| AACGUAGGUGGUUUUCCCCUGAUAGUGCUAAGGGGGCCUGGAAGUUUGGACUGGGCAGAGCUCCACACAGCGUGGCAAAGUGGCUGUGGCUAGACUGCCUCUCUGGAUUCCUCGUCACUCAGCAGGGCAUCUCUGAGGGAAAUGCC [U1A A64C A138G] | 0.86 |
| AACGUAGGUGGUUUUCCCCUGAUAGUGCUAAGGGGGCCUGGAAGUUUGGACUGGGCAGAGCUCAACACAGCGUGGCGAAGUGGCUGUGGCUAGACUGCCUCUCUGGAUUCCUCGUCACUCAGCAGGGCAUCUCCGAGAGAAAUGCC [U1A A77G U134C] | 1.39 |
| AACGUAGGUGGUUUUCCCCUGAUAGUGCUAAGGGGGCCUGGAAGUUUGGACUGGGCAGAGCUCAACACAGCGUGGCAAGGUGGCUGUGGCUAGACUGCCUCUCUGGAUUCCUCGUCACUCAGCAGGGCAUCUCUGGGAGAAAUGCC [U1A A79G A136G] | 0.48 |
| AACGUAGGUGGUUUUCCCCUGAUAGUGCUAAGGGGGCCUGGAAGUUUGGACUGGGCAGAGCUCAACACAGCGUGGCAAUGUGGCUGUGGCUAGACUGCCACUCUGGAUUCCUCGUCACUCAGCAGGGCAUCUCUGAGAGGAAUGCC [U1A A79U U100A A140G] | 2.21 |
| AAUGUAGGUGGUUUUCCCUUGAUAGUGCUAAGGGGGCCUGGAAGUUUGGACUGGGCAGAGCUCAACACAGCGUGGCGAAGUGGCUGUGGCUAGACUGCCUCUCUGGAUUCCUCGUCACUCAGCAGGGCAUCUCUGAGAGGAAUGCC [U1A C3U C19U A77G A140G] | 2.09 |
| AACGUAGGUGGUUUUCCCUUGAUAGUGCUAAGGGGGCCUGGAAGUUUGGACUGGGCAGAGCUCAACACAGCGUGGCUAAGUGGCAGUGGCUAGGCUGCCUCUCUGGAUUCCUCGUCACUCAGCAGGGCAUCUCUGAGAGAAAUGCC [U1A C19U A77U U85A A94G] | 0.27 |
| AACGUAGGUGGUUUUCCCCUGAUAGUGCUAAGGGGGCCUGGAAGUUUGGAUUGGGCAGAGCACAACACAGCGUGGCGAAGUGGCUGUGGCUAGACUGCCUCUCUGGAUUCCUCGUCACUCAGCAGGGCAUCUCUGAGAGAGAUGCC [U1A C51U U62A A77G A141G] | 0.23 |
| AACGUAGGUAGUUUUCCCCUGAUAGUGCUAAGGGGGCCUGGAAGUUUGGACUGGGCAGAGCUCAACACAGCGUGGCAAAGUGGCUGUGGCUAGACUGCCUCUCUGGAUUCCUCGUCACUCAGCAGAGCAUCUCUGAGAGAAAUGCC [U1A G10A G126A] | 0.99 |
| AACGUAGGUUGUUUUCCCCUGAUAGUGCUAAGGGGGCCUGGGAGUUUGGACUGGGCAGAGCUCAACACAGCGUGGCAAAGUGGCUGUGGCUAGACUGCCUCUCUGGAUUCCUCGUCACUCAGCAGGGCAUCUCUGAGAGAAAUGCC [U1A G10U A42G] | 1.24 |
| AACGUAGGUGGUUUUCCCCUGAUAGUGCUAAGGGGGCCUAGAAGUUUGGACUGGGCAGAGCUCAACGCAGCGUGGCAAAGUGGCUGUGGCUAGACUGCCUCUCUGGAUUCCUCGUCACUCAGCAGGGCAUCUCUGAGAGAAAUGCC [U1A G40A A67G] | 0 |

| Variant | self-cleavage |
| --- | --- |
| AACGUAGGUGGUUUUCCCCUGAUAGUGCUAAGGGGGCCUGUAGGUUUGGACUGGGCAGAGCUCAACACAGCGUGGCAAAGUGGCUGUGGCUGGACUGCCUCUCUGGAUUCCUCGUCACUCAGCAGGGCAUCUCUGAGAGAAAUGCC [U1A G41U A43G A92G] | 0 |
| AACGUAGGUGGUUUUCCCCUGAUAGUGCUAAGGGGGCCUGGAAGUUUGGACUAGGCUGAGCUCAACACAGCGUGGCAAAGUGGCUGUGGCUAGACUGCCUCUCUGGAUUCCUCGUCACCCAGCAGGGCAUCUCUGAGAGAAAUGCC [U1A G53A A57U U119C] | 0.3 |
| AACGUAGGUGGUUUUCCCCUGAUAGUGCUAAGGGGGCCUGGAAGUUUGGACUGGGCAGAACUCAACACAGCGUGGCAAAGUGGCUGUGGCUAGACUGCCUCUCUGGAUUCCUCGUCACCCAGCAGGGCAUCUCUGAGAGAAAUGCC [U1A G60A U119C] | 0.14 |
| AACGAAGGUGGUUUUCCCCUGAUAGUGCUAGGGGGGCCUGGAAGUUUGGACUGGACAGAGCUCAACACAGCGUGGCAAAGUGGCUGUGGCUAGACUGCCUCUCUGGAUUCCUCGUCACUCAGCAGGGCAUCUCUGAGAGAAAUGCC [U1A U5A A31G G55A] | 0.7 |
| AACGAAGGUGGUUUUCCCCUGAUAGUGCUAAGGGGGCCUGGAAGUUUGGACUGGGCAGAGCCCAACACAGCGUGGCAAAGUGGCUAUGGCUAGACUGCCUCUCUGGAUUCCUCGUCACUCAGCAGGGCAUCUCCGAGGGAAAUGCC [U1A U5A U62C G86A U134C A138G] | 0.07 |
| AACGCAGGUGGUUUUCCCCUGAUAGUGCUAAGGGGGCCUGGAAGUUUGGACUGGGCAGAGCUCAACACAGCGUGGCAAAGUGGCUGUGGCUAGACUGCCUCCCUGGAUUCCUCAUCACUCAGCAGGGCAUCUCUGAGAGAAAUGCC [U1A U5C U102C G114A] | 1.11 |
| AACGUAGGCGGUCUUCCCCUGAUAGUGCUAAGGGGGCCUGGAAGUUUGGACUGGGCAGAGCUCAACGCAGCGUGGCAAAGUGGCUGUGGCUAGACCGCCUCUCUGGAUUCCUCGUCACUCAGCAGGGCAUCUCUGAGAGAAAUGCU [U1A U9C U13C A67G U96C C146U] | 0.92 |
| AACGUAGGUGGAUUUCCCCUGAUAGUGCUAAGGGGGCCUGGAAGUUUGGACUGGGCAGAGCUCAGCACAGCGUGGCAAAGUGGCUGUGGUUAGACUGCCUCUCUGGAUUCCUCGUCACUCAGCAGGGCAUCUCUGAGAGAAAUGCC [U1A U12A A65G C90U] | 0.22 |
| AACGUAGGUGGCUUUCCCCUGAUAGUGCUAAGGGGGCCUGGAAGUUUGGACUGGGCAGAGCUCAACACAGCGUGGCAAAGUGGCUGUGGCUAGACUGCCUCUCUGGAUUCCUCGUCACUCAGCAGGGCACCUCUGAGAGAAAUGCC [U1A U12C U130C] | 1.67 |
| AACGUAGGUGGUAUUCCCCUGAUAGUGCUAAGGGGGCCUGGAAGUUUGGACUGGGCAGAGCUCAACACAGCGUGGCAAAGUGGCCGUGGCUAGACUGCCUCUCUGGAUUCCUCGUCACUCAGCAGGGCAUCUCUGAGAGAAAUGCC [U1A U13A U85C] | 0.19 |
| AACGUAGGUGGUCUUCCCCUGAUAGUGCUAAGGGGGCCUGGAGGUUUGGACUGGGCAGAGCUCAACACAGCGUGGCAAAGUGGCUGUGGCUAGACUGCCUCUCUGGAUUCCUCGUCACUCAGCAGGGCAUCUCUGAGAGAAAUGCC [U1A U13C A43G] | 1.26 |
| AACGUAGGUGGUCUUCCCCUGAUAGUGCUAAGGGGGCCUGGAAGUUUGGACUGGGCAGAGCUCAACGCAGCGUGGCAAAGAGGCUGUGGCUAGACUGCCUCUCUGGAUUCCCCGUCACUCAGCAGGGCAUCUCUGAGAGAAAUGCC [U1A U13C A67G U81A U112C] | 1.06 |
| AACGUAGGUGGUUCUCCCCUGAUAGUGCUAAGGGGGCCUGGAAGUUUGGGCUGGGCAGAGCUCAACACAGCGUGGCAAAGUGGCUGUGGCUAGACUGCCUCUCUGGAUACCUCGUCACUCAGCAGGGCAUCUCUGAGAGAAAUGCC [U1A U14C A50G U109A] | 1.37 |
| AACGUAGGUGGUUCUCCCCUGAUAGUGCUAAGGGGGCCCGGAAGUUUGGACUGGGCAGAGCUCAACACAGCGUGGCAAAGUGGCUGUGGCUAGACUGCCUCUCUGGAUUCCUCGUCACUCAGCAGGGCAUCUCUGAGAGAAAUGCC [U1A U14C U39C] | 1.06 |
| AACGUAGGUGGUUCUCCCCUGAUAGUGCUAAGGGGGCCUGGAAGUUUGGACUGGGCAGAGCUCAACACAGCGUGGCAAAGUGGCUGUGGCUAGACUGCCUCUCUGGAUUCCACGUCACUCAGCAGGGCCUCUCUGAGAGAAAUGCC [U1A U14C U112A A129C] | 1.84 |
| AACGUAGGUGGUUUCCCCCUGAUAGCGCUAAGGGGACCUGGAAGUUUGGACUGGGCAGAGCUCAACACAGCGUGGUAAAGUGGCUGUGGCUAGACUGCCUCUCUGGAUUCCUUGUCACUCAGCAGGGCAUCUCUGAGAGAAAUGCC [U1A U15C U26C G36A C76U C113U] | 2.08 |
| AACGUAGGUGGUUUUCCCCCGGUAGUGCUAAGGGGGCCUGGAAGUUUGGACUGGGCAGAGUUCAACACAGCGUGGCAAAGUGGCUGUGGCUAGACUGCCUCUCUGGAUUCCUCGUCACUCAGCAGGGCAUCUCUGUGAGAAAUGCC [U1A U20C A22G C61U A136U] | 0.2 |
| AACGUAGGUGGUUUUCCCCUGACAGUGCUAUGGGGGCCUGGAAGUUUGGACUGGGCAGAGCUCAGCACAGCGUGGCAAAGUAGCAGUGGCUAGACUGCCUCUCUGGAUUCCUCGUCACUCAGCAGGGCAUCUCUGAGAGAAAUGCC [U1A U23C A31U A65G G82A U85A] | 0.05 |
| AACGUAGGUGGUUUUCCCCUGAUAGCGCUAAGGGGGCCUGGAAGUUUGGACUGGGCAGAGCUCAACACAGCAUGGCAGAGUGGCUGUGGCUAGACUGCCUCUCUGGAUUCCUCGUCACUCAGCAGGGCAUCUCUGAGAGAAAUGCC [U1A U26C G72A A78G] | 1.15 |
